Source: publication PMC4336329 (PLoS ONE, 2015)
In all, about 310,000 compounds went through this assay and about 2,200 (0.71%) showed an effect of 50% or more. Effects have a minus sign here. The list shows a part of the results.

The compounds below were run against human ether-à-go-go-related gene (hERG) potassium channel (human, UniProt Q12809) (assay: primary screen, population patch clamp on CHO cells stably expressing hERG).
human ether-à-go-go-related gene (hERG) potassium channel, sequence (Q12809 whole entry, looked up): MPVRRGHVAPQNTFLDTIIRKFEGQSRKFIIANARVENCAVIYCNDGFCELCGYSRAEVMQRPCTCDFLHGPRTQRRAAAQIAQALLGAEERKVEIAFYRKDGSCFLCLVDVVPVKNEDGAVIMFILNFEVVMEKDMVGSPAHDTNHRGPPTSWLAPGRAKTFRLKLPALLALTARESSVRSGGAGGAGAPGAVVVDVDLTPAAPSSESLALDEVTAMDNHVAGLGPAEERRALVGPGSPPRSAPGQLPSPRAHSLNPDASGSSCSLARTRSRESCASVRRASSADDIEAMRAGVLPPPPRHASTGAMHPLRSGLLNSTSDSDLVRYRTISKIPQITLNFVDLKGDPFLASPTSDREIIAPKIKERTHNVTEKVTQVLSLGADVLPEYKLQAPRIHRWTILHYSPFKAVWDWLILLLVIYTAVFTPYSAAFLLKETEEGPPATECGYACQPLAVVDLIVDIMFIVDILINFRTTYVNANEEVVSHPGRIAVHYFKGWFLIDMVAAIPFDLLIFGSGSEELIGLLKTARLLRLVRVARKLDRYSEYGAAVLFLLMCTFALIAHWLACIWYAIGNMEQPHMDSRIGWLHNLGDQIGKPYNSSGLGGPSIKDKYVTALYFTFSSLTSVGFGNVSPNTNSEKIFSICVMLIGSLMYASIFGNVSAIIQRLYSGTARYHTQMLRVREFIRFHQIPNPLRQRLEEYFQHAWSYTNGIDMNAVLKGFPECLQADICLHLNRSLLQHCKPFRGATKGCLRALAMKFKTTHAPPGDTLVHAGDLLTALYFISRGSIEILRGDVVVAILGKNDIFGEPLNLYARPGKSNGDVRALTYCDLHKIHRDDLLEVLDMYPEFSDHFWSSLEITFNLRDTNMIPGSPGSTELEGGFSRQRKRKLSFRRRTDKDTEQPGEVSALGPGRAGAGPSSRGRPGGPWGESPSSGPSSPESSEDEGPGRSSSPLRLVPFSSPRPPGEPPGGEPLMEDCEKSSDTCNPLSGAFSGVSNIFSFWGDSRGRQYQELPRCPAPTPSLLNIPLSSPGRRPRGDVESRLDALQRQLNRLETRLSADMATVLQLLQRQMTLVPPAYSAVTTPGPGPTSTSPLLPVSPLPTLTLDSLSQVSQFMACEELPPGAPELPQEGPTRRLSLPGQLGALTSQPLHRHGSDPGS

Compared with COc1ccc(CCNC(=O)CCCC(=O)n2nc(C)c3ccccc32)cc1OC, COc1ccc(CNC(=O)CSc2nc3ccccc3n2C(C)=O)cc1 is lower in “hERG current change (%, negative = inhibition) at 1uM” value: 11.8% for the first, 9.53% for the second.

Going from CCCCC(=O)Nc1nnc(-c2ccc(OC)cc2)s1 to COc1ccc(-c2cn(Cc3ccc(C(N)=O)cc3)c(-c3ccc(Cl)nc3)n2)cc1, the “hERG current change (%, negative = inhibition) at 1uM” value falls from -4.02% to -9.64%.

First: CCC1CCCCN1C(=O)COc1cccc2c1CCN(C)C2=O (stereo not drawn)
Second: CCOC(=O)NN1C(=O)c2ccccc2NC1c1cccnc1 (stereo not drawn)
The “hERG current change (%, negative = inhibition) at 1uM” value of the first is higher: 6.08% for the first, 0.305% for the second.

First: Cn1c(SCC(=O)N2CCCc3ccccc32)nnc1-c1ccco1
Second: O=C(CSc1nnnn1-c1ccc(O)cc1)c1cc2ccccc2o1
The “hERG current change (%, negative = inhibition) at 1uM” value of the first is higher: 11% for the first, 10.4% for the second.

First: CC(=O)N1CCN(c2nc(CC(C)C)c3c(c2C#N)CCC3)CC1
Second: C=CCN1CCN(C(=O)c2cc3c(s2)CCCC3)CC1
The “hERG current change (%, negative = inhibition) at 1uM” value of the first is higher: 8.43% for the first, -1.43% for the second.

First: OC(CNCc1cccs1)c1ccccc1 (stereo not drawn)
Second: COc1ccc(-c2ccccc2)cc1NC(=O)c1cccs1
The “hERG current change (%, negative = inhibition) at 1uM” value of the first is higher: 15.1% for the first, 10.6% for the second.

Compared with COCCn1c(C)cc(C(=O)CSc2cc(C)c3ccccc3n2)c1C, CNC(=O)c1cc(Nc2nnc(C)c3ccccc23)ccc1OC is higher in “hERG current change (%, negative = inhibition) at 1uM” value: 6.15% for the first, 11.2% for the second.

First: CCCCn1c(N)c(N(CCC(C)C)C(=O)c2sc3nc4n(c(=O)c3c2C)CCC4)c(=O)[nH]c1=O
Second: CCCCc1c(O)nc2n(c1=O)CCS2
The “hERG current change (%, negative = inhibition) at 1uM” value of the first is higher: 12.5% for the first, 3.77% for the second.

Going from CCOc1ccc(-n2c(SCC(N)=O)nc3c([nH]c4ccccc43)c2=O)cc1 to CCOC(=O)CSc1cccc2cccnc12, the “hERG current change (%, negative = inhibition) at 1uM” value falls from 8.16% to 1.33%.

Compared with CC/C(=N/Nc1ccccc1)c1cnnc(-c2ccccc2)n1, Cc1ccc2nc(NCC(=O)O)nc(-c3ccccc3)c2c1 is higher in “hERG current change (%, negative = inhibition) at 1uM” value: 0.406% for the first, 8.21% for the second.

Compared with CC(C)(C)CN1C(N)=NC[C@@H]1Cc1ccc(O)cc1, CCn1c(=O)c(C(=O)NCCc2ccccc2)c(O)c2ccccc21 is higher in “hERG current change (%, negative = inhibition) at 1uM” value: 3.77% for the first, 18% for the second.

First: CS(=O)(=O)NCC(c1cccnc1)N1CCN(c2ccccc2F)CC1 (stereo not drawn)
Second: O=[N+]([O-])c1cc(CN2CCN(c3cccc(C(F)(F)F)c3)CC2)c2cccnc2c1O
The “hERG current change (%, negative = inhibition) at 1uM” value of the first is lower: 1.52% for the first, 12.2% for the second.

Compared with CC(=O)n1nc(-c2cccnc2)nc1N, S=C(NCc1cccnc1)NCc1cccnc1 is higher in “hERG current change (%, negative = inhibition) at 1uM” value: -2.76% for the first, 4.36% for the second.

Compared with O=[N+]([O-])c1ccc(Cl)c(/C=N/NC(=S)Nc2ccccc2)c1, O=C(O)c1[nH]c2ccccc2c1C=NCc1ccccc1Cl is lower in “hERG current change (%, negative = inhibition) at 1uM” value: 22.1% for the first, 12.4% for the second.

Going from O=C(Nc1ccc(OC(F)(F)F)cc1)c1ccc2nc[nH]c2c1 to Cc1ccccc1C(=O)Nc1cc(C(F)(F)F)ccc1-n1cncn1, the “hERG current change (%, negative = inhibition) at 1uM” value rises from 3.01% to 7.37%.

Going from C=CCNC(=S)NCCO to CC(=O)c1ccc(OCCCC(=O)NNC(=O)c2ccccn2)cc1, the “hERG current change (%, negative = inhibition) at 1uM” value falls from 14.1% to 10.1%.

Going from O=C1NC(=O)N(c2ccc3c(c2)OCO3)C(=O)/C1=C/c1ccsc1 to CCOc1ccc(S(=O)(=O)NC(C)C(=O)NCc2ccc3c(c2)OCO3)cc1 (stereo not drawn), the “hERG current change (%, negative = inhibition) at 1uM” value falls from 12.4% to 1.45%.

First: CCOc1cc(/C=N/NC(=O)c2nn(C)cc2Br)ccc1OCc1ccccc1
Second: CC(C)(C)OC(=O)[C@H](Cc1ccccc1)NC(=O)c1nc[nH]c1C(=O)N1CCc2ccccc2C1
The “hERG current change (%, negative = inhibition) at 1uM” value of the first is higher: 7.84% for the first, 1.91% for the second.

First: C/C(=N/O)c1ccc2c(c1)OCCOCCOc1cc(/C(C)=N/O)ccc1OCCOCCO2
Second: COc1ccc(S(=O)(=O)N2CCOCC2)cc1NC(=O)c1ccc2c(c1)OCCO2
The “hERG current change (%, negative = inhibition) at 1uM” value of the first is lower: -79.7% for the first, 6.39% for the second.

Compared with CC(=O)NC(CC(=O)O)c1ccc([N+](=O)[O-])cc1 (stereo not drawn), Cc1ccc(-c2cc(C(F)(F)F)c(C#N)c(SCC(=O)O)n2)cc1 is lower in “hERG current change (%, negative = inhibition) at 1uM” value: 16% for the first, 15.3% for the second.

Compared with Cc1ccc2ccc(S(=O)(=O)NCc3ccccn3)cc2c1, COC(=O)c1ccc(OC(=O)c2ccco2)cc1 is lower in “hERG current change (%, negative = inhibition) at 1uM” value: 14.2% for the first, 9.12% for the second.

Going from CN(C)C(CNc1ncnc2sc3c(c12)CCCCC3)c1ccco1 (stereo not drawn) to COC(=O)c1c(/N=C/N(C)C)sc2c1CCN(c1ncc(C(F)(F)F)cc1Cl)C2, the “hERG current change (%, negative = inhibition) at 1uM” value falls from 12.8% to 2.67%.

With COc1ccc2c(C(=O)CN3CCSCC3)c[nH]c2c1 the “hERG current change (%, negative = inhibition) at 1uM” value was 8.2%.
